# Laboratory results: the supplement of paper PMC8728848
# The other results are listed elsewhere or left out.
# Tests used:
# Test in all cases: glycan array binding signal (z-score within array); higher = stronger binding
# Settings in all cases: glycan notation: IUPAC condensed, linker removed
# [1] = target: Fuc(a1-2)Gal
# Method in brief: (§1)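 Arrays were curated from the Consortium for Functional Glycomics database, 3228 in total, and kept only where the protein sequence was available. Binding is expressed as a within-array Z-score. This score was averaged across arrays of the same protein sequence at different concentrations or buffers and across linkers, and negative values can be read as non-binding.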
# [2] = target: Fuc(a1-2)Gal(b1-3)GalNAc
# Method in brief: as §1
# [3] = target: Fuc(a1-2)Gal(b1-3)GalNAc(b1-3)Gal
# Method in brief: as §1
# [4] = target: Fuc(a1-2)Gal(b1-3)GalNAc(b1-3)Gal(a1-4)Gal(b1-4)Glc
# Method in brief: as §1
# [5] = target: Fuc(a1-2)Gal(b1-3)GalNAc(b1-3)Gal(b1-4)Glc
# Method in brief: as §1
# [6] = target: Fuc(a1-2)Gal(b1-3)GalNAc(b1-4)[Neu5Ac(a2-3)]Gal(b1-4)Glc
# Method in brief: as §1
# [7] = target: Fuc(a1-2)Gal(b1-3)[Fuc(a1-4)]GlcNAc
# Method in brief: as §1
# [8] = target: Fuc(a1-2)Gal(b1-4)Glc
# Method in brief: as §1
# [9] = target: Fuc(a1-2)Gal(b1-4)GlcNAc
# Method in brief: as §1
# [10] = target: Fuc(a1-2)Gal(b1-4)GlcNAc(b1-3)Gal(b1-4)GlcNAc
# Method in brief: as §1
# [11] = target: Fuc(a1-2)Gal(b1-4)GlcNAc(b1-3)Gal(b1-4)GlcNAc(b1-3)Gal(b1-4)GlcNAc
# Method in brief: as §1
# [12] = target: Fuc(a1-2)Gal(b1-4)[Fuc(a1-3)]GalNAc(b1-3)Gal(b1-4)[Fuc(a1-3)]GlcNAc
# Method in brief: as §1
# [13] = target: Fuc(a1-2)Gal(b1-4)[Fuc(a1-3)]GalNAc(b1-3)Gal(b1-4)[Fuc(a1-3)]GlcNAc(b1-3)Gal(b1-4)[Fuc(a1-3)]GalNAc
# Method in brief: as §1
# [14] = target: Fuc(a1-2)Gal(b1-4)[Fuc(a1-3)]GlcNAc
# Method in brief: as §1
# [15] = target: Fuc(a1-2)GlcNAc
# Method in brief: as §1
# [16] = target: Fuc(a1-2)[Gal(a1-3)]Gal
# Method in brief: as §1
# [17] = target: Fuc(a1-2)[Gal(a1-3)]Gal(b1-3)GlcNAc
# Method in brief: as §1
# [18] = target: Fuc(a1-2)[Gal(a1-3)]Gal(b1-4)Glc
# Method in brief: as §1
# [19] = target: Fuc(a1-2)[Gal(a1-3)]Gal(b1-4)GlcNAc
# Method in brief: as §1
# [20] = target: Fuc(a1-2)[Gal(a1-3)]Gal(b1-4)[Fuc(a1-3)]GlcNAc
# Method in brief: as §1
# [21] = target: Fuc(a1-2)[Gal(a1-4)]Gal(b1-4)GalNAc
# Method in brief: as §1
# [22] = target: Fuc(a1-2)[GalNAc(a1-3)]Gal
# Method in brief: as §1
# [23] = target: Fuc(a1-2)[GalNAc(a1-3)]Gal(b1-3)GlcNAc
# Method in brief: as §1
# [24] = target: Fuc(a1-2)[GalNAc(a1-3)]Gal(b1-4)Glc
# Method in brief: as §1
# [25] = target: Fuc(a1-2)[GalNAc(a1-3)]Gal(b1-4)GlcNAc
# Method in brief: as §1
# [26] = target: Fuc(a1-2)[GalNAc(a1-3)]Gal(b1-4)[Fuc(a1-3)]GlcNAc
# Method in brief: as §1
# [27] = target: Fuc(a1-2)[GalNAc(a1-4)]Gal(b1-4)GlcNAc
# Method in brief: as §1
# [28] = target: Fuc(a1-3)GlcNAc
# Method in brief: as §1
# [29] = target: Fuc(a1-3)[Gal(b1-4)]GlcNAc
# Method in brief: as §1
# [30] = target: Fuc(a1-3)[Gal(b1-4)]GlcNAc(b1-4)Gal(b1-4)[Fuc(a1-3)]GlcNAc
# Method in brief: as §1
# [31] = target: Fuc(a1-3)[Gal(b1-4)]GlcNAc(b1-4)Gal(b1-4)[Fuc(a1-3)]GlcNAc(b1-4)Gal(b1-4)[Fuc(a1-3)]GlcNAc
# Method in brief: as §1
# [32] = target: Fuc(a1-3)[Gal3S(b1-4)]GlcNAc
# Method in brief: as §1
# [33] = target: Fuc(a1-3)[GalNAc(b1-4)]Gal(b1-4)GlcNAc
# Method in brief: as §1
# [34] = target: Fuc(a1-4)GlcNAc
# Method in brief: as §1
# [35] = target: Fuc(b1-3)GlcNAc
# Method in brief: as §1
# [36] = target: Gal(a1-2)Gal
# Method in brief: as §1
# [37] = target: Gal(a1-3)Gal
# Method in brief: as §1
# [38] = target: Gal(a1-3)Gal(b1-3)Glc
# Method in brief: as §1
# [39] = target: Gal(a1-3)Gal(b1-3)GlcNAc
# Method in brief: as §1
# [40] = target: Gal(a1-3)Gal(b1-4)GlcNAc
# Method in brief: as §1
# [41] = target: Gal(a1-3)Gal(b1-4)[Fuc(a1-3)]GalNAc
# Method in brief: as §1
# [42] = target: Gal(a1-3)GlcNAc
# Method in brief: as §1
# [43] = target: Gal(a1-3)[Gal(a1-4)]Gal(b1-4)GlcNAc
# Method in brief: as §1
# [44] = target: Gal(a1-4)Gal(b1-4)Gal
# Method in brief: as §1
# [45] = target: Gal(a1-4)Gal(b1-4)GalNAc
# Method in brief: as §1
binder,measurement,setting,value
TbCVNHOb (Tuber borchii) (protein) GSHIGPYMSFYASSEDVRTIEEGGRTWLVGRARRADGSWQDIKLDLDNIIGNRDGHLTWGEQNFTQSASDIRFNFEGGSNVPVLRAKLRNAAGGEQESDLNLGERLTNNNGDLVFN,glycan array binding signal (z-score),[1],-0.409
same,glycan array binding signal (z-score),[2],-0.299
same,glycan array binding signal (z-score),[3],-0.484
same,glycan array binding signal (z-score),[4],2.01
same,glycan array binding signal (z-score),[5],4.24
same,glycan array binding signal (z-score),[6],-0.152
same,glycan array binding signal (z-score),[7],0.7
same,glycan array binding signal (z-score),[8],0.347
same,glycan array binding signal (z-score),[9],-0.529
same,glycan array binding signal (z-score),[10],-0.268
same,glycan array binding signal (z-score),[11],-0.361
same,glycan array binding signal (z-score),[12],-0.589
same,glycan array binding signal (z-score),[13],-0.572
same,glycan array binding signal (z-score),[14],-0.363
same,glycan array binding signal (z-score),[15],-0.561
same,glycan array binding signal (z-score),[16],-0.286
same,glycan array binding signal (z-score),[17],-0.523
same,glycan array binding signal (z-score),[18],-0.49
same,glycan array binding signal (z-score),[19],-0.146
same,glycan array binding signal (z-score),[20],-0.563
same,glycan array binding signal (z-score),[21],0.5
same,glycan array binding signal (z-score),[22],-0.182
same,glycan array binding signal (z-score),[23],-0.444
same,glycan array binding signal (z-score),[24],0.333
same,glycan array binding signal (z-score),[25],0.041
same,glycan array binding signal (z-score),[26],-0.516
same,glycan array binding signal (z-score),[27],-0.465
same,glycan array binding signal (z-score),[28],-0.182
same,glycan array binding signal (z-score),[29],-0.527
same,glycan array binding signal (z-score),[30],-0.485
same,glycan array binding signal (z-score),[31],-0.402
same,glycan array binding signal (z-score),[32],-0.469
same,glycan array binding signal (z-score),[33],0.474
same,glycan array binding signal (z-score),[34],-0.552
same,glycan array binding signal (z-score),[35],-0.447
same,glycan array binding signal (z-score),[36],-0.375
same,glycan array binding signal (z-score),[37],-0.303
same,glycan array binding signal (z-score),[38],-0.028
same,glycan array binding signal (z-score),[39],-0.53
same,glycan array binding signal (z-score),[40],-0.565
same,glycan array binding signal (z-score),[41],-0.535
same,glycan array binding signal (z-score),[42],-0.551
same,glycan array binding signal (z-score),[43],1.91
same,glycan array binding signal (z-score),[44],4.24
same,glycan array binding signal (z-score),[45],0.275
